This is one part of the list. These are noisy estimates, calculated here from bound and input reads.
biological target: T1, Pho4 (S. cerevisiae) (UniProt P07270); experiment: relative binding free energy (BET-seq); higher = weaker binding; settings: reference: library average
T1 sequence: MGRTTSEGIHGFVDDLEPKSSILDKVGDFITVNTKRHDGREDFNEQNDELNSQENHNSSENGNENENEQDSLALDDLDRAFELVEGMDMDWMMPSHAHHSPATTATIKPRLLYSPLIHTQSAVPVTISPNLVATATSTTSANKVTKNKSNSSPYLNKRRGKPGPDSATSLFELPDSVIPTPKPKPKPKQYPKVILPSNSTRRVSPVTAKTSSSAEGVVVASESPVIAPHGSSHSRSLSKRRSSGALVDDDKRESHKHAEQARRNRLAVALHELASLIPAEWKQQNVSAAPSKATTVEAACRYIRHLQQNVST

Which “relative binding free energy” value does the source give for GAAGGCACGTGATGAG here?
Its value is 0.03 kcal/mol.

For TTTAGCACGTGGCCTT, which “relative binding free energy” value is on record?
The value was -0.21 kcal/mol.

GCGGACACGTGAGGGC was tested. Which “relative binding free energy” value did it give?
Its value is 0.44 kcal/mol.

ATGGTCACGTGAAGAT was tested. Which “relative binding free energy” value did it give?
The value was 0.31 kcal/mol.

With TTTTTCACGTGAAACG as the sequence, how does the “relative binding free energy” value read?
The value was 0.45 kcal/mol.

For ACGGGCACGTGCGGGA, which “relative binding free energy” value is on record?
The value was -0.09 kcal/mol.

Which “relative binding free energy” value does the source give for ATTAACACGTGGTGGA here?
Its value is -0.09 kcal/mol.

TTAGACACGTGTAAGA was tested. Which “relative binding free energy” value did it give?
Its value is 0.2 kcal/mol.

With GGTTTCACGTGCTGTG as the sequence, how does the “relative binding free energy” value read?
The value was 0.29 kcal/mol.

Which “relative binding free energy” value does the source give for ATGGACACGTGTCGGT here?
The value was 0 kcal/mol.

How did the “relative binding free energy” value turn out when AGTAGCACGTGTTGCG was run?
The value was -0.07 kcal/mol.

With ATTTACACGTGTGCTG as the sequence, how does the “relative binding free energy” value read?
The value was 0.08 kcal/mol.

Which “relative binding free energy” value does the source give for GCAGTCACGTGGGTTA here?
Its value is 0 kcal/mol.

For AGACTCACGTGGTTTA, which “relative binding free energy” value is on record?
Its value is 0.31 kcal/mol.

For ATATGCACGTGGCGCG, which “relative binding free energy” value is on record?
Its value is -0.12 kcal/mol.

For TTAAGCACGTGGGTCA, which “relative binding free energy” value is on record?
The value was -0.23 kcal/mol.

Which “relative binding free energy” value does the source give for TGTGACACGTGAGGGG here?
The value was 0.17 kcal/mol.

Which “relative binding free energy” value does the source give for TATGGCACGTGAGCAG here?
The value was 0.11 kcal/mol.

TGTTACACGTGAGCAG was tested. Which “relative binding free energy” value did it give?
Its value is 0.25 kcal/mol.

With AGGCTCACGTGTGGAT as the sequence, how does the “relative binding free energy” value read?
Its value is 0.2 kcal/mol.

With GGGCTCACGTGCGTAG as the sequence, how does the “relative binding free energy” value read?
Its value is 0.26 kcal/mol.

With ACAGGCACGTGTGGGC as the sequence, how does the “relative binding free energy” value read?
The value was -0.14 kcal/mol.

For ACTGACACGTGTAGTG, which “relative binding free energy” value is on record?
Its value is 0.15 kcal/mol.

For TGGGGCACGTGATTAG, which “relative binding free energy” value is on record?
Its value is 0 kcal/mol.

For CTCAGCACGTGGGCGG, which “relative binding free energy” value is on record?
The value was -0.19 kcal/mol.

With ATTGACACGTGAGTAA as the sequence, how does the “relative binding free energy” value read?
Its value is 0.25 kcal/mol.

GGTGCCACGTGTAAGG was tested. Which “relative binding free energy” value did it give?
The value was 0.14 kcal/mol.

TTTATCACGTGGCTTG was tested. Which “relative binding free energy” value did it give?
Its value is 0.17 kcal/mol.

With TTAACCACGTGTGTGT as the sequence, how does the “relative binding free energy” value read?
Its value is -0.2 kcal/mol.

For CTATTCACGTGTTATT, which “relative binding free energy” value is on record?
The value was 0.07 kcal/mol.

How did the “relative binding free energy” value turn out when GGTTGCACGTGAGGTC was run?
Its value is 0.23 kcal/mol.

How did the “relative binding free energy” value turn out when TTTGACACGTGACTGT was run?
Its value is 0.05 kcal/mol.

TGCCTCACGTGTGGTA was tested. Which “relative binding free energy” value did it give?
Its value is 0.2 kcal/mol.

For TTTTGCACGTGGACTG, which “relative binding free energy” value is on record?
Its value is -0.06 kcal/mol.

How did the “relative binding free energy” value turn out when TGGCCCACGTGTCGGG was run?
Its value is -0.1 kcal/mol.

For TTTTACACGTGATCTG, which “relative binding free energy” value is on record?
The value was 0.23 kcal/mol.

How did the “relative binding free energy” value turn out when AGCTTCACGTGTAGTA was run?
The value was 0.33 kcal/mol.

For GGCTGCACGTGTGGTG, which “relative binding free energy” value is on record?
The value was 0.05 kcal/mol.

For GTCATCACGTGGTTAG, which “relative binding free energy” value is on record?
Its value is 0.11 kcal/mol.

With GCGTGCACGTGTGAAG as the sequence, how does the “relative binding free energy” value read?
Its value is 0.05 kcal/mol.

For GCATGCACGTGGTGTT, which “relative binding free energy” value is on record?
The value was -0.09 kcal/mol.

With AGTAACACGTGATGTT as the sequence, how does the “relative binding free energy” value read?
Its value is 0.03 kcal/mol.

Which “relative binding free energy” value does the source give for TGGATCACGTGATGGG here?
The value was 0.32 kcal/mol.

How did the “relative binding free energy” value turn out when TTCGTCACGTGAGAGA was run?
Its value is 0.27 kcal/mol.

With CGAGGCACGTGGGGCT as the sequence, how does the “relative binding free energy” value read?
Its value is -0.22 kcal/mol.

Which “relative binding free energy” value does the source give for ATGCTCACGTGTAGGA here?
Its value is 0.13 kcal/mol.

For CTTAGCACGTGTGGTA, which “relative binding free energy” value is on record?
Its value is 0.03 kcal/mol.

How did the “relative binding free energy” value turn out when ATCTACACGTGTTGTG was run?
Its value is 0.14 kcal/mol.

Which “relative binding free energy” value does the source give for GAATTCACGTGGATTA here?
The value was 0.32 kcal/mol.

How did the “relative binding free energy” value turn out when AGGTGCACGTGTATCA was run?
Its value is 0.03 kcal/mol.

Which “relative binding free energy” value does the source give for ACTCGCACGTGTAGGG here?
The value was -0.07 kcal/mol.

Which “relative binding free energy” value does the source give for TGGGACACGTGAGGTG here?
The value was 0.2 kcal/mol.

Which “relative binding free energy” value does the source give for AGAATCACGTGTATTG here?
The value was 0.07 kcal/mol.

Which “relative binding free energy” value does the source give for AGGGACACGTGCGTAT here?
The value was -0.12 kcal/mol.

How did the “relative binding free energy” value turn out when TGTTGCACGTGCCGGC was run?
The value was 0.06 kcal/mol.

TGTCCCACGTGATGGT was tested. Which “relative binding free energy” value did it give?
Its value is 0.02 kcal/mol.

For TGTGGCACGTGACGGC, which “relative binding free energy” value is on record?
The value was 0.03 kcal/mol.

For AAGAACACGTGGGGAG, which “relative binding free energy” value is on record?
Its value is -0.08 kcal/mol.

TGTGGCACGTGCGGGA was tested. Which “relative binding free energy” value did it give?
The value was -0.12 kcal/mol.

How did the “relative binding free energy” value turn out when CCTGTCACGTGGGGTT was run?
The value was -0.02 kcal/mol.

TATTTCACGTGGTACA was tested. Which “relative binding free energy” value did it give?
The value was 0.2 kcal/mol.

With GATGCCACGTGATGTT as the sequence, how does the “relative binding free energy” value read?
Its value is 0.1 kcal/mol.

With CTATCCACGTGTTGGG as the sequence, how does the “relative binding free energy” value read?
Its value is 0.14 kcal/mol.

For CGGGCCACGTGAAGTT, which “relative binding free energy” value is on record?
The value was 0.41 kcal/mol.

How did the “relative binding free energy” value turn out when TGGGGCACGTGAGTCC was run?
The value was 0.19 kcal/mol.

How did the “relative binding free energy” value turn out when CAGTGCACGTGTTTTT was run?
Its value is -0.14 kcal/mol.

With TGAAGCACGTGCGGAG as the sequence, how does the “relative binding free energy” value read?
Its value is -0.09 kcal/mol.

Which “relative binding free energy” value does the source give for TTCGCCACGTGGGGAG here?
The value was -0.24 kcal/mol.

With TGGCTCACGTGTTGCG as the sequence, how does the “relative binding free energy” value read?
Its value is 0.2 kcal/mol.

For GTTATCACGTGACTTT, which “relative binding free energy” value is on record?
Its value is 0.28 kcal/mol.

Which “relative binding free energy” value does the source give for CGGTGCACGTGGATAG here?
Its value is -0.06 kcal/mol.

TGCGTCACGTGGGGTC was tested. Which “relative binding free energy” value did it give?
Its value is -0.05 kcal/mol.

With GGTTACACGTGGGAGG as the sequence, how does the “relative binding free energy” value read?
Its value is 0.12 kcal/mol.

TGAGACACGTGGTGTT was tested. Which “relative binding free energy” value did it give?
Its value is 0.09 kcal/mol.

For CCGGGCACGTGAGGGA, which “relative binding free energy” value is on record?
Its value is 0.05 kcal/mol.

How did the “relative binding free energy” value turn out when GGAGACACGTGTAAGG was run?
Its value is 0.07 kcal/mol.

For TGTCTCACGTGGTTCA, which “relative binding free energy” value is on record?
Its value is 0.12 kcal/mol.

For CGGGACACGTGGGAGT, which “relative binding free energy” value is on record?
The value was 0.04 kcal/mol.

For TTTGTCACGTGTCTAG, which “relative binding free energy” value is on record?
The value was 0.1 kcal/mol.

For GGTGGCACGTGAGTCA, which “relative binding free energy” value is on record?
Its value is 0.15 kcal/mol.

For GGGGTCACGTGCAGGA, which “relative binding free energy” value is on record?
The value was 0.01 kcal/mol.

GGGTACACGTGGGCTT was tested. Which “relative binding free energy” value did it give?
The value was 0.01 kcal/mol.

With TTTTACACGTGGAAAT as the sequence, how does the “relative binding free energy” value read?
Its value is 0.19 kcal/mol.

With GAGAGCACGTGCGAGG as the sequence, how does the “relative binding free energy” value read?
Its value is -0.12 kcal/mol.

For AATGGCACGTGTTGAG, which “relative binding free energy” value is on record?
Its value is 0 kcal/mol.

How did the “relative binding free energy” value turn out when TGTGACACGTGGGTAC was run?
The value was -0.16 kcal/mol.

For ATTGTCACGTGGTGGG, which “relative binding free energy” value is on record?
Its value is 0.1 kcal/mol.

Which “relative binding free energy” value does the source give for TTGTGCACGTGACGTG here?
Its value is 0.15 kcal/mol.

Which “relative binding free energy” value does the source give for ATTGTCACGTGAGTTG here?
Its value is 0.18 kcal/mol.

With ATTGGCACGTGTGTTA as the sequence, how does the “relative binding free energy” value read?
Its value is -0.01 kcal/mol.

With TGCGGCACGTGGAGGA as the sequence, how does the “relative binding free energy” value read?
Its value is -0.06 kcal/mol.

Which “relative binding free energy” value does the source give for AGTTACACGTGAAGTT here?
The value was 0.35 kcal/mol.

For ATGGGCACGTGGATTA, which “relative binding free energy” value is on record?
Its value is -0.09 kcal/mol.

How did the “relative binding free energy” value turn out when GCATTCACGTGGGAGG was run?
The value was 0.15 kcal/mol.

For GAGAGCACGTGGTTTG, which “relative binding free energy” value is on record?
Its value is -0.12 kcal/mol.

How did the “relative binding free energy” value turn out when TTAGGCACGTGGACGG was run?
Its value is -0.09 kcal/mol.

How did the “relative binding free energy” value turn out when TTGTGCACGTGAAGGC was run?
Its value is 0.22 kcal/mol.

GGTATCACGTGGTTGG was tested. Which “relative binding free energy” value did it give?
Its value is 0.19 kcal/mol.

Which “relative binding free energy” value does the source give for CCTGGCACGTGCTGGG here?
Its value is -0.19 kcal/mol.

Which “relative binding free energy” value does the source give for TTTTTCACGTGATTTC here?
The value was 0.38 kcal/mol.

Which “relative binding free energy” value does the source give for TCGGTCACGTGTGCTG here?
The value was 0.16 kcal/mol.

With GGGAACACGTGAAGGC as the sequence, how does the “relative binding free energy” value read?
The value was 0.38 kcal/mol.

For GGGTACACGTGTGGGT, which “relative binding free energy” value is on record?
Its value is 0.23 kcal/mol.

GTTTTCACGTGAAACG was tested. Which “relative binding free energy” value did it give?
The value was 0.43 kcal/mol.

CGTTGCACGTGGTTGA was tested. Which “relative binding free energy” value did it give?
The value was -0.11 kcal/mol.

How did the “relative binding free energy” value turn out when AAGAGCACGTGAGGAT was run?
The value was 0.15 kcal/mol.

TCGAGCACGTGTGGGA was tested. Which “relative binding free energy” value did it give?
The value was -0.2 kcal/mol.

With GTGCACACGTGATGGG as the sequence, how does the “relative binding free energy” value read?
Its value is 0.05 kcal/mol.

How did the “relative binding free energy” value turn out when AATGACACGTGTTGTG was run?
The value was 0 kcal/mol.

With TTCGACACGTGTGGCG as the sequence, how does the “relative binding free energy” value read?
The value was 0.07 kcal/mol.

GTCTTCACGTGGCTGT was tested. Which “relative binding free energy” value did it give?
The value was 0.24 kcal/mol.

Which “relative binding free energy” value does the source give for GTAAGCACGTGTGTCT here?
The value was -0.03 kcal/mol.

Which “relative binding free energy” value does the source give for TGGTCCACGTGATTGG here?
The value was 0.24 kcal/mol.

With TTAGGCACGTGCTTAG as the sequence, how does the “relative binding free energy” value read?
The value was -0.1 kcal/mol.

How did the “relative binding free energy” value turn out when GCTGGCACGTGTTTTT was run?
The value was 0.15 kcal/mol.

Source: the BET-seq Pho4 binding data (Le et al. 2018)
